Test results published in article PMC4918322.
Numbering of substitutions follows the chain as printed. These are yes or no findings as the source states them, for the method shown. In cells and extracts the contact can be indirect. Some entries that bind do so weakly or less than the wild type. Sequences can lack the tags named with a protein.

Columns and labels:
[1] = biological target: T1, V5-tagged RSF1-C1 (amino acids 627-1441) (human) (UniProt Q96T23); test: co-IP; RSF1 KO HeLa cells transfected with RSF1-C1-V5 constructs, paclitaxel 16 h; mitotic lysates immunoprecipitated with anti-V5 antibody, immunoblotting
T1 sequence: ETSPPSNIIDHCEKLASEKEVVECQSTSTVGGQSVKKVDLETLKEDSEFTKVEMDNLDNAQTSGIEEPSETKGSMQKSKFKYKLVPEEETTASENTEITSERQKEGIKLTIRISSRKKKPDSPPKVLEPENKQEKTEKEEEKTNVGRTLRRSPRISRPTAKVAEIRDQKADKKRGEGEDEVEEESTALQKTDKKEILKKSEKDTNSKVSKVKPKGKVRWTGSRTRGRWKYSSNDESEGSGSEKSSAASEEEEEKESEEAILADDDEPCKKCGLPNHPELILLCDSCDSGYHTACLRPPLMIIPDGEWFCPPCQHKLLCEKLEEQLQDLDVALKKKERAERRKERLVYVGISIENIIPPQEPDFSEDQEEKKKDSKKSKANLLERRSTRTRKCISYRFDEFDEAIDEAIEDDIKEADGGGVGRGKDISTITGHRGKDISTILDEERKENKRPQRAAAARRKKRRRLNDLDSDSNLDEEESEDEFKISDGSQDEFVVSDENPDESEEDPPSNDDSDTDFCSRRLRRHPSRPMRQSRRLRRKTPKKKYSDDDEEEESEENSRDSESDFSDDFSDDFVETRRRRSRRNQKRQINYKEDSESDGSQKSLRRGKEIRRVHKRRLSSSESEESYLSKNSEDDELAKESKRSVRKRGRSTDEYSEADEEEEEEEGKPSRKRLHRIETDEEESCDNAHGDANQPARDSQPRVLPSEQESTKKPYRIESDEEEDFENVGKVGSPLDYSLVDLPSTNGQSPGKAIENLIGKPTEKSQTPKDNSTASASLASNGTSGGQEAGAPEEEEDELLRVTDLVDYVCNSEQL

[2] = biological target: T2, V5-tagged RSF1-C1 S1359A (human) (UniProt Q96T23); test: as above
T2 sequence: T1 sequence with S733A

[3] = biological target: T3, V5-tagged RSF1-C1 S1359D (human) (UniProt Q96T23); test: as above
T3 sequence: T1 sequence with S733D

[4] = biological target: T1, V5-tagged RSF1-C1 (amino acids 627-1441) (human); test: condition: only cells treated with the CDK1 inhibitor Ro3306 for 15 min; co-IP; as a7, cells pre-treated with MG132 for 1 h and with the CDK1 inhibitor Ro3306 for 15 min before harvest; anti-V5 immunoprecipitation

binding [1]: binds | binding [2]: binds | binding [3]: binds | binding [4]: no binding
Substance: endogenous PLK1 (from UniProt P53350 1-603)
